Test results from paper PMC4336329 (PLoS ONE, 2015).
In all, about 310,000 compounds went through this assay and about 14,000 (4.5%) showed an effect of 50% or more. The effect is printed as a negative number. The list shows a part of the results.

Target: human ether-à-go-go-related gene (hERG) potassium channel (human, UniProt Q12809)
Test: primary screen, population patch clamp on CHO cells stably expressing hERG
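Also: peak tail current of the secondary pulse compared with the same well before compound.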

Chain of human ether-à-go-go-related gene (hERG) potassium channel (Q12809 whole entry, looked up): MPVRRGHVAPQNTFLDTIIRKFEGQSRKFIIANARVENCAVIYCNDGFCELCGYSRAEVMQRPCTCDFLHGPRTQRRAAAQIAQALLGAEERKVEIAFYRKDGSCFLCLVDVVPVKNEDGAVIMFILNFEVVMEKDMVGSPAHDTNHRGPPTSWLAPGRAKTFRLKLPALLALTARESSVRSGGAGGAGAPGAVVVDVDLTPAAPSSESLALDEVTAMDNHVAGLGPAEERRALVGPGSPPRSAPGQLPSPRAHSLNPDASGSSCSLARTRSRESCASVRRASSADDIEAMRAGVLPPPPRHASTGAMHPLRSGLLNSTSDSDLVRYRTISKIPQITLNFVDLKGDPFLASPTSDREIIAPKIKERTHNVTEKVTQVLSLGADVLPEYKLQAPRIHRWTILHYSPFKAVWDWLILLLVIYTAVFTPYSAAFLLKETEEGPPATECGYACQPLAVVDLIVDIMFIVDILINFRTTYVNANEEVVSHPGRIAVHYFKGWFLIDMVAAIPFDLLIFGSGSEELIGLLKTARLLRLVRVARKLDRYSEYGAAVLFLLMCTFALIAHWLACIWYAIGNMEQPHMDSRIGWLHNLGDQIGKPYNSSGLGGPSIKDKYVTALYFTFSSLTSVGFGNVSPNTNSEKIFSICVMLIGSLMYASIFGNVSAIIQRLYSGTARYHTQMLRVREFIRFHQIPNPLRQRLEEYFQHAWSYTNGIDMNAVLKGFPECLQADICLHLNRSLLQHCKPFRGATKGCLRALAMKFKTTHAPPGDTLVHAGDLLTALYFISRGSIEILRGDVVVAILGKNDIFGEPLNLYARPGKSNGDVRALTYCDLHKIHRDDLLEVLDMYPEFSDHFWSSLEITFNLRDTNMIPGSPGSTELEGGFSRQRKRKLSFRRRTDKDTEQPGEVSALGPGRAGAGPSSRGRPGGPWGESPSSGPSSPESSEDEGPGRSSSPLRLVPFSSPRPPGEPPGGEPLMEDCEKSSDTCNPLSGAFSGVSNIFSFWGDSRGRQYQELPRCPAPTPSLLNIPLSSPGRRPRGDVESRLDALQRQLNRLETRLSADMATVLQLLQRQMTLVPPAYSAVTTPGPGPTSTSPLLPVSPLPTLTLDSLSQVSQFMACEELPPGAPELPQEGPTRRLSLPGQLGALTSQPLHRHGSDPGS

SMILES	hERG current change (%, negative = inhibition) at 10uM [%]
COc1ccc(/C=C(/NC(=O)c2ccccc2Cl)C(=O)NCCCC(=O)O)cc1	27.8
CCn1c(Cc2ccccc2)nnc1SCC(=O)c1c(N)n(C2CC2)c(=O)[nH]c1=O	-9.15
O=C(O)c1cncc(C#Cc2ccccc2)c1	1.39
COc1cc(C)c(Cl)c(C)c1S(=O)(=O)NCc1ccc2c(c1)OCO2	12.8
Cc1cccc(-c2cc(C(=O)NCc3ccccn3)c3ccccc3n2)c1	-18
CSc1ccccc1NC(=O)COC(=O)CSc1ccc(C)cc1	11.2
O=C1C(C2=NC(c3ccccn3)C3C(=O)N(c4ccccc4)C(=O)C23)=C(O)c2ccccc21 (centres unmarked)	8.36
COc1ccc(/C=N/Nc2ccc(C(=O)O)cc2)cc1Br	15
CC(C)CCn1c(SCC#N)nc2c(sc3ccccc32)c1=O	3.96
Cc1onc(-c2c(F)cccc2Cl)c1C(=O)NC(=S)NCc1cccnc1	-16.4
COc1cc2c(CCNC(C)=O)c[nH]c2cc1O	4.18
O=C(Cn1cccc1C(=O)c1ccccc1)NCc1ccccn1	-0.399
OC(CNCc1ccccc1C(F)(F)F)C(F)(F)F (centres unmarked)	14.1
Cc1cc(C(=O)CSc2nc(N)cc(=O)[nH]2)c(C)n1Cc1ccco1	5.46
Cc1cc(SCC(=O)OCC(=O)c2c(N)n(C)c(=O)n(C)c2=O)c(C)cc1Br	-3.76
Nc1cccc2nsnc12	0.829
CCN(CC)c1nc(N(CC)CC)[nH]c(=O)n1	2.62
O=C(/C=C/c1ccc([N+](=O)[O-])cc1)N1CCN(c2ccccc2F)CC1	-34.2
COc1ccc(-c2nc(C#N)c(NCc3ccc(C)cc3)o2)cc1OC	8.12
O=C(Nc1ccc2oc(-c3ccccc3)nc2c1)c1ccc2c(c1)OCCO2	20.6
CC(C)NCCOc1cccc(Br)c1.O=C(O)C(=O)O	19.7
O=C(NCc1ccco1)c1ccc2c(c1)C(=O)N(Cc1ccccc1)C2=O	-24.6
O=C(Nc1ccc(Cl)cn1)c1ccc2nccnc2c1	-10
Cc1ccc(NC(=O)CNCc2cccs2)c(Br)c1.Cl	-7.26
Cc1cc(OCC(=O)OCC(=O)NC2CCCC2)ccc1Cl	14.4
CCCC(=O)c1cc(F)c(N2CCN(CCC#N)CC2)cc1C	-18.7
